Results from PMC12136788.
The other results are listed elsewhere or left out.

T1: UNK ZnF1-3 (human, UniProt Q9C0B0 31-174)
T1 sequence: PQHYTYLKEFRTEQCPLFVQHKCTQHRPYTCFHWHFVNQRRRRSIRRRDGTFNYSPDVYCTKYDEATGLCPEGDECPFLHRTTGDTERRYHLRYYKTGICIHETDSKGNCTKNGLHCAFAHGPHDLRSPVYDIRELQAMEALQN

B1: chr1:66459500:66459501:+_ENSMUSG00000015222_ENSMUST00000114013|mus_mus|FALSE|FALSE (ssRNA)
RNA: GGGAGUUCUACAGUCCGACGAUCGAAGACAGGGGCAAAGGGUCGUGGUCCUUCUGAGACUCUCUCAUUCUUCAUAGUGUCUAAGGGAAGAGUGAAACUUCCACCAUGGAAGGGGCUUGGCAUGGGAGAGUCAAACUGCUUCCCCAACAGAGGAUUGAGCAUCA
B2: chr4:146681603:146681604:-_ENSG00000151612_ENST00000508784|hu_hu|FALSE|FALSE (ssRNA)
RNA: GGGAGUUCUACAGUCCGACGAUCAUUCACCCAACAGAAAACCAAAUGCACCAGUAUAUAAGCUUACAAGUGCUGAUUGCUAUUAAGGACACUCUCUUUAGGGUUUAACAAGACAAGAUUCCUUUCAGAGAAAAGUACGGAGAACAACAGAGGAUUGAGCAUCA
B3: chr18:13746249:13746250:+_ENSG00000101654_ENST00000262173|hu_mus|FALSE|FALSE (ssRNA)
RNA: GGGAGUUCUACAGUCCGACGAUCGUUUUCAUUGUUUUUAAUCUUUUCUUCAUAGAAUUCCAAAAAUGUUUUUUUGUAGAUUAGUUUCAUAUUAUACUUCUUUGCCAUUUCAGUUAGCAAUGGAAAAUAGACCAAGAAUUCAGGCAACAGAGGAUUGAGCAUCA
B4: 120829109_120830460_866_CDS_ENSG00000107581_ENST00000369144|human|control|control (ssRNA)
RNA: GGGAGUUCUACAGUCCGACGAUCUGGUUUUUUAGACAAGGAGAAUAGCCCGUGAAUAUCUUCCACAGCUUUGAAUGCUUCCUGCCACAAUUCCAUGCUGAUAGCACUGUCCAGCUGAACAAGUCUGGUUUCCAAAUGCAUGGACAACAGAGGAUUGAGCAUCA
B5: 42865057_42866260_6113_CDS_ENSG00000105429_ENST00000334370|human|control|control (ssRNA)
RNA: GGGAGUUCUACAGUCCGACGAUCGGAGCCCCCGCAGCCCAGCCUGUGGGCCUGAUCCCCGGACAAGCAGGCCCCAUGGCACCAGGUGCAGGCCCCAGACUGGUUACAAGCUUCAGGUGAGGACAGCAGGCGGCAGGGGUCAGGCAACAGAGGAUUGAGCAUCA
B6: chr18:52937122:52937123:-_ENSG00000196628_ENST00000354452|hu_mus|FALSE|FALSE (ssRNA)
RNA: GGGAGUUCUACAGUCCGACGAUCUAUACUGUCUGUUCCGUUGGCAGGGGGUGUGCAGGAAGAGGUGCUGUAAUGGUUUGUGCCACUACGAUGGAACGUGGACAUCGGAGGAAGACUGGAGUUGAUGUCUGCCGAGGAGUGGGACAACAGAGGAUUGAGCAUCA
B7: chr7:141445308:141445309:+_ENSG00000106028_ENST00000265304|hu_hu|hu_hu_hu_mus_False|18_68 (ssRNA)
RNA: GGGAGUUCUACAGUCCGACGAUCUAUGAUUGUUGUUGCUUGCCGCCUCACAUUGUUUUUAUCCAUGUAUUCACCAUAGUCCACUUUCCCUUCCACAAAUAUACGAGCCCCCUUUUUCACAUAUUGAUAUGCCACAUCUCUGAGCAACAGAGGAUUGAGCAUCA
B8: chr4:25749455:25749456:-_ENSG00000091490_ENST00000264868|hu_hu|hu_hu_hu_mus_False|1_1 (ssRNA)
RNA: GGGAGUUCUACAGUCCGACGAUCGCACUAUGACCUCUAGAAAAAUCCACAGGGGGAAAAAAUGUAAACCAAUGUACAAUGUUAUCGCCUUCCCUGUGUGUGGAGUGUUUGUCUCAAGGCUCCUUCUAGCUGCUGGACUGCUAGCAACAGAGGAUUGAGCAUCA
B9: chr17:64631184:64631185:-_ENSMUSG00000024083_ENSMUST00000172818|mus_mus|FALSE|FALSE (ssRNA)
RNA: GGGAGUUCUACAGUCCGACGAUCUGGCUUGUUACACAGCAAUCUGCAGCAGUGUAAGUUUAAUCAGUAAGUGCCAUAACUAGUCAACAGUACAUAAAAGAAAACAAACAAACAAACCACACAAUUCACAAAUAUCCACAGUAUCAACAGAGGAUUGAGCAUCA
B10: 48487616_48487736_109_5pUTR_ENSMUSG00000039347_ENSMUST00000040361|mouse|control|control (ssRNA)
RNA: GGGAGUUCUACAGUCCGACGAUCAUGCUCAGGUGGGGUAUCAGAUCGAACGGCAGACUCUAAGCAGGUGCAAGUCUCGGCAGAGGGCUGUGCGCAUGCGCAACGGAAUCUCAGCCGGGAAGGCCCUGGACCAAGCGAAUCUGCCAACAGAGGAUUGAGCAUCA
B11: 7505514_7506983_708_CDS_ENSMUSG00000024758_ENSMUST00000025667|mouse|control|control (ssRNA)
RNA: GGGAGUUCUACAGUCCGACGAUCCAGCUCGGCGAGAAUCAGAAGGGUAAUUCCAUUAAAAACAGCACCAACAUAGGUCAUCAGCCACAUGAAGACAGCCAGCUUCAAGGAGUCAACCAAGUCUUCUACCAGAAAGAGACGAAUCAACAGAGGAUUGAGCAUCA
B12: chr5:36814161:36814162:+_ENSMUSG00000029198_ENSMUST00000031099|mus_hu|FALSE|FALSE (ssRNA)
RNA: GGGAGUUCUACAGUCCGACGAUCAGUUCAUUAAUGCAGUUGGGCAACCGGCUUUUCUGUUUAGCCACUGGUUACUUAAGGUUUCCAAUAAGGUUUGGGAAAAGGUCACACGUACUCAUAGAUGAGAAACAAUGAACCAGCCUUCAACAGAGGAUUGAGCAUCA
B13: 97424773_97425521_2069_CDS_ENSMUSG00000021670_ENSMUST00000022176|mouse|control|control (ssRNA)
RNA: GGGAGUUCUACAGUCCGACGAUCAGAGAUCAUGUUCAUGCCCAUGGCGUCCCCCGUCCUGGACUGGAAACGGAUAUAGAGGUUGCGUCCUGCCAUCGUCACGUGGAGUUUCUGUAGACGAGCAAAUCUGCUGGUGCUAUCAAACAACAGAGGAUUGAGCAUCA
B14: 215785255_215792339_1908_CDS_ENSG00000136636_ENST00000259154|human|control|control (ssRNA)
RNA: GGGAGUUCUACAGUCCGACGAUCGCCUGUGAACAAGUAGCGCCUUGGUCUUGAGCCCAUCCUACUGGAUCCCUCACAUUCCCUCACUGUAAAUGAGGAUAUUGUAGUACAGUCAACAGCCUGGAUCUCACAUAUUCUUUUUCCCAACAGAGGAUUGAGCAUCA
B15: 102240484_102240604_513_CDS_ENSMUSG00000027189_ENSMUST00000102573|mouse|control|control (ssRNA)
RNA: GGGAGUUCUACAGUCCGACGAUCACUGUCUUCCUCGGUCUCGCUCUCUUCUUCCGACUCACUGUCUACCUCCGUCUCGCUCUCUUCUUCCCCGACCUCGCUCUCUACCUCCCCCUCGGCCUCCCCUUUGGCCUCGCCGUCUUCCAACAGAGGAUUGAGCAUCA
B16: chr3:160150142:160150143:+_ENSG00000113810_ENST00000344722|hu_mus|FALSE|FALSE (ssRNA)
RNA: GGGAGUUCUACAGUCCGACGAUCAAAACCAGCCAUAAAUUCAUUCAGCCUUUGUUUUCGAAGAUCUUCAUAUGCUUGUCUAAAAUUAUCUCUUUCAGAAGUAAUUUUGUCCAGUUCGGCUACUCUUUGCAAAUAUAAAUCUUCCAACAGAGGAUUGAGCAUCA
B17: 33127454_33129492_512_CDS_ENSG00000176102_ENST00000323959|human|control|control (ssRNA)
RNA: GGGAGUUCUACAGUCCGACGAUCCACCCAAAUCUGAUAGGACAUAAUUUCCAUUCCAAUUUUAUCCAGUGCAAAGUCAUAUGCUUGAGCCAUUUUUUCUUUGUAACUUGGUAGUUUACCCUUGGUUUCUCGGACAUAUGAAAGCAACAGAGGAUUGAGCAUCA
B18: chr9:103913939:103913940:+_ENSMUSG00000032558_ENSMUST00000035167|mus_mus|FALSE|FALSE (ssRNA)
RNA: GGGAGUUCUACAGUCCGACGAUCAAAAUAAACAGCGAGGAAGAAAUAUCCCAUUGUCUCGCACAUUCUUUUAAGUUUAGGUGAAUGGUCCUUAAGGAACAGUUCCAUUUCGGGCUGUGUUUCAUCUGUGUAGAUGAGGUAGCACAACAGAGGAUUGAGCAUCA
B19: 65898798_65898918_1790_3pUTR_ENSG00000213625_ENST00000371065|human|control|control (ssRNA)
RNA: GGGAGUUCUACAGUCCGACGAUCUUCGGGAAGAAGCCAGAGCCGUAGAGAAGUCAGGGCAAACCAGAACUGUUGAGGAGUAGGGGUGGGGGGCAGAGGGAAGGAGCUGGGGAGAAGUGCCAGAUCAUAAAGGAAAUGUAAAAGCAACAGAGGAUUGAGCAUCA
B20: chr14:76904430:76904431:+_ENSMUSG00000022010_ENSMUST00000022587|mus_mus|mus_mus_mus_hu_True|48_108 (ssRNA)
RNA: GGGAGUUCUACAGUCCGACGAUCUGCUGGAAAAAAAACCCUCGUGGAAAAAAAGAGGGAACACCAGCAGCCUUGUAUAAGCUAGAUAAAACCGCCUGGCUUUCCGCAGCCCAGGGAGAAACAGAAAACGGCAGCCCUAAUUUACAACAGAGGAUUGAGCAUCA
B21: chr14:102349618:102349619:+_ENSG00000078304_ENST00000445439|hu_hu|FALSE|FALSE (ssRNA)
RNA: GGGAGUUCUACAGUCCGACGAUCUACAAACUUCUGAUCAAUAUAUUUCUUCGCUAUAUUAGGUUGGAAAUCUGGAGACUCUAAAAAUCUUAAGAAAAAUUCAUAAACAAGCUGUAGAUGAGGCCAGGCUGCUUCUAACGUUGGCAACAGAGGAUUGAGCAUCA
B22: chr3:142455598:142455599:-_ENSMUSG00000004591_ENSMUST00000043812|mus_hu|FALSE|FALSE (ssRNA)
RNA: GGGAGUUCUACAGUCCGACGAUCAAAAUAUUUCAUCAAAUUAUUUUUGAGACUUUUGAGGUACAGCUUUAGUGUUAUAAUUCAUUUUUUAAUAAAAUAUAGACUGUUUUAUCAAAAAUAUUUAUACAUUCUGUUACAAUAUAUCAACAGAGGAUUGAGCAUCA

Target: T1, UNK ZnF1-3
Assay: nsRBNS (natural sequence RNA bind-n-seq); RBNS binding buffer (assumed for nsRBNS): 25 mM Tris pH 7.5, 150 mM KCl, 3 mM MgCl2, 0.01% Triton X-100, 500 ug/ml BSA, 20 U/ml SUPERase-In, 4 C; UNK is unkempt and MSI1 is Musashi-1; names of the RNAs are library labels; protein concentration not given here; high values mean tight binding

Binder	binding signal [enrichment R]
B1	0.82
B2	1.56
B3	0.612
B4	0.618
B5	0.719
B6	1.26
B7	0.739
B8	1.02
B9	1.57
B10	0.494
B11	1.75
B12	1.44
B13	1.14
B14	1.27
B15	0.45
B16	0.425
B17	1.07
B18	0.733
B19	3.27
B20	1.66
B21	1.73
B22	0.68
